# Measurements from the supplement of paper PMC8728848.
# The list shows a part of the results.
# Tests used:
# Assay in all cases: glycan array binding signal (z-score within array); higher = stronger binding
# Conditions in all cases: glycan notation: IUPAC condensed, linker removed
# [1] = biological target: Neu5Ac(a2-3)6dGal(b1-4)[Fuc(a1-3)]GlcNAc(b1-3)Gal
# Method in brief: (§1)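 Glycan array binding is given as a within-array Z-score, which can be read as non-binding when negative. The arrays, 3228 of them, came from the Consortium for Functional Glycomics database and were retained only where the protein sequence was available. Z-scores were averaged across arrays of the same protein sequence at different concentrations or buffers and across linkers.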
# Neu5Ac(a2-3)Gal = biological target: Neu5Ac(a2-3)Gal
# Method in brief: as §1
# [2] = biological target: Neu5Ac(a2-3)Gal(b1-3)6dGalNAc
# Method in brief: as §1
# [3] = biological target: Neu5Ac(a2-3)Gal(b1-3)GalNAc
# Method in brief: as §1
# [4] = biological target: Neu5Ac(a2-3)Gal(b1-3)GalNAc(b1-3)Gal(a1-4)Gal(b1-4)Glc
# Method in brief: as §1
# [5] = biological target: Neu5Ac(a2-3)Gal(b1-3)GalNAc(b1-3)Gal(b1-4)GlcNAc
# Method in brief: as §1
# [6] = biological target: Neu5Ac(a2-3)Gal(b1-3)GalNAc(b1-4)[Neu5Ac(a2-3)]Gal(b1-4)Glc
# Method in brief: as §1
# [7] = biological target: Neu5Ac(a2-3)Gal(b1-3)GalNAc(b1-4)[Neu5Ac(a2-8)Neu5Ac(a2-3)]Gal(b1-4)Glc
# Method in brief: as §1
# [8] = biological target: Neu5Ac(a2-3)Gal(b1-3)GalNAc6S
# Method in brief: as §1
# [9] = biological target: Neu5Ac(a2-3)Gal(b1-3)GalNAc6S(b1-4)Gal(b1-4)Glc
# Method in brief: as §1
# [10] = biological target: Neu5Ac(a2-3)Gal(b1-3)GlcNAc
# Method in brief: as §1
# [11] = biological target: Neu5Ac(a2-3)Gal(b1-3)GlcNAc(b1-2)Man
# Method in brief: as §1
# [12] = biological target: Neu5Ac(a2-3)Gal(b1-3)GlcNAc(b1-2)Man(a1-3)[GlcNAc(b1-4)][Neu5Ac(a2-3)Gal(b1-3)GlcNAc(b1-2)Man(a1-6)]Man(b1-4)GlcNAc(b1-4)GlcNAc
# Method in brief: as §1
# [13] = biological target: Neu5Ac(a2-3)Gal(b1-3)GlcNAc(b1-2)Man(a1-3)[Neu5Ac(a2-3)Gal(b1-3)GlcNAc(b1-2)Man(a1-6)]Man(b1-4)GlcNAc(b1-4)GlcNAc
# Method in brief: as §1
# [14] = biological target: Neu5Ac(a2-3)Gal(b1-3)GlcNAc(b1-3)Gal(b1-3)GlcNAc
# Method in brief: as §1
# [15] = biological target: Neu5Ac(a2-3)Gal(b1-3)GlcNAc(b1-3)Gal(b1-4)Glc
# Method in brief: as §1
# [16] = biological target: Neu5Ac(a2-3)Gal(b1-3)GlcNAc(b1-3)Gal(b1-4)GlcNAc
# Method in brief: as §1
# [17] = biological target: Neu5Ac(a2-3)Gal(b1-3)GlcNAc(b1-3)GalNAc
# Method in brief: as §1
# [18] = biological target: Neu5Ac(a2-3)Gal(b1-3)GlcNAc(b1-3)[Fuc(a1-3)[Gal(b1-4)]GlcNAc(b1-6)]Gal(b1-4)Glc
# Method in brief: as §1
# [19] = biological target: Neu5Ac(a2-3)Gal(b1-3)GlcNAc(b1-4)Gal(b1-4)Glc
# Method in brief: as §1
# [20] = biological target: Neu5Ac(a2-3)Gal(b1-3)GlcNAc(b1-6)GalNAc
# Method in brief: as §1
# [21] = biological target: Neu5Ac(a2-3)Gal(b1-3)GlcNAc6S
# Method in brief: as §1
# [22] = biological target: Neu5Ac(a2-3)Gal(b1-3)[Fuc(a1-3)]GlcN(b1-3)Gal(b1-4)Glc
# Method in brief: as §1
# [23] = biological target: Neu5Ac(a2-3)Gal(b1-3)[Fuc(a1-4)]GlcNAc
# Method in brief: as §1
# [24] = biological target: Neu5Ac(a2-3)Gal(b1-3)[Fuc(a1-4)]GlcNAc(b1-3)Gal(b1-3)[Fuc(a1-4)]GlcNAc
# Method in brief: as §1
# [25] = biological target: Neu5Ac(a2-3)Gal(b1-3)[Fuc(a1-4)]GlcNAc(b1-3)Gal(b1-4)Glc
# Method in brief: as §1
# [26] = biological target: Neu5Ac(a2-3)Gal(b1-3)[Fuc(a1-4)]GlcNAc(b1-3)Gal(b1-4)[Fuc(a1-3)]GlcNAc
# Method in brief: as §1
# [27] = biological target: Neu5Ac(a2-3)Gal(b1-3)[GlcNAc(b1-6)]GalNAc
# Method in brief: as §1
# [28] = biological target: Neu5Ac(a2-3)Gal(b1-3)[Neu5Ac(a2-3)Gal(b1-4)]GlcNAc
# Method in brief: as §1
# [29] = biological target: Neu5Ac(a2-3)Gal(b1-3)[Neu5Ac(a2-6)]GalNAc
# Method in brief: as §1
# [30] = biological target: Neu5Ac(a2-3)Gal(b1-3)[Neu5Ac(a2-6)]GalNAc(b1-4)Gal(b1-4)Glc
# Method in brief: as §1
# [31] = biological target: Neu5Ac(a2-3)Gal(b1-3)[Neu5Ac(a2-6)]GlcNAc(b1-3)Gal(b1-4)Glc
# Method in brief: as §1
# [32] = biological target: Neu5Ac(a2-3)Gal(b1-3)[Neu5Ac(a2-6)]GlcNAc(b1-3)[Fuc(a1-3)[Gal(b1-4)]GlcNAc(b1-6)]Gal(b1-4)Glc
# Method in brief: as §1
# [33] = biological target: Neu5Ac(a2-3)Gal(b1-3)]Neu5Ac(a2-3)Gal(b1-4)]GlcNAc
# Method in brief: as §1
# Neu5Ac(a2-3)Gal(b1-4)Glc = biological target: Neu5Ac(a2-3)Gal(b1-4)Glc
# Method in brief: as §1
# [34] = biological target: Neu5Ac(a2-3)Gal(b1-4)GlcNAc
# Method in brief: as §1
# [35] = biological target: Neu5Ac(a2-3)Gal(b1-4)GlcNAc(b1-2)Man
# Method in brief: as §1
# [36] = biological target: Neu5Ac(a2-3)Gal(b1-4)GlcNAc(b1-2)Man(a1-3)[GlcNAc(b1-2)Man(b1-4)GlcNAc(b1-2)Man(a1-6)]Man(b1-4)GlcNAc(b1-4)GlcNAc
# Method in brief: as §1
# [37] = biological target: Neu5Ac(a2-3)Gal(b1-4)GlcNAc(b1-2)Man(a1-3)[GlcNAc(b1-4)][Neu5Ac(a2-3)Gal(b1-4)GlcNAc(b1-2)Man(a1-6)]Man(b1-4)GlcNAc(b1-4)GlcNAc
# Method in brief: as §1
# [38] = biological target: Neu5Ac(a2-3)Gal(b1-4)GlcNAc(b1-2)Man(a1-3)[Neu5Ac(a2-3)Gal(b1-4)GlcNAc(b1-2)Man(a1-6)]Man(b1-4)GlcNAc(b1-4)GlcNAc
# Method in brief: as §1
# [39] = biological target: Neu5Ac(a2-3)Gal(b1-4)GlcNAc(b1-2)Man(a1-3)[Neu5Ac(a2-3)Gal(b1-4)GlcNAc(b1-2)Man(a1-6)]Man(b1-4)GlcNAc(b1-4)[Fuc(a1-6)]GlcNAc
# Method in brief: as §1
# [40] = biological target: Neu5Ac(a2-3)Gal(b1-4)GlcNAc(b1-2)Man(a1-3)[Neu5Ac(a2-6)Gal(b1-4)GlcNAc(b1-2)Man(a1-6)]Man(b1-4)GlcNAc(b1-4)GlcNAc
# Method in brief: as §1
# [41] = biological target: Neu5Ac(a2-3)Gal(b1-4)GlcNAc(b1-2)[Neu5Ac(a2-3)Gal(b1-4)GlcNAc(b1-4)]Man(a1-3)[GlcNAc(b1-4)][Neu5Ac(a2-3)Gal(b1-4)GlcNAc(b1-2)[Neu5Ac(a2-3)Gal(b1-4)GlcNAc(b1-6)]Man(a1-6)]Man(b1-4)GlcNAc(b1-4)GlcNAc
# Method in brief: as §1
# [42] = biological target: Neu5Ac(a2-3)Gal(b1-4)GlcNAc(b1-2)[Neu5Ac(a2-3)Gal(b1-4)GlcNAc(b1-4)]Man(a1-3)[GlcNAc(b1-4)][Neu5Ac(a2-3)Gal(b1-4)GlcNAc(b1-4)Man(a1-6)]Man(b1-4)GlcNAc(b1-4)GlcNAc
# Method in brief: as §1
# [43] = biological target: Neu5Ac(a2-3)Gal(b1-4)GlcNAc(b1-2)[Neu5Ac(a2-3)Gal(b1-4)GlcNAc(b1-6)]Man(a1-6)[Neu5Ac(a2-3)Gal(b1-4)GlcNAc(b1-2)Man(a1-3)]Man(b1-4)GlcNAc(b1-4)GlcNAc
# Method in brief: as §1
binder,measurement,setting,value
"PNA (Arachis hypogaea), P02872 (protein) MKPFCVFLTFFLLLAASSKKVDSAETVSFNFNSFSEGNPAINFQGDVTVLSNGNIQLTNLNKVNSVGRVLYAMPVRIWSSATGNVASFLTSFSFEMKDIKDYDPADGIIFFIAPEDTQIPAGSIGGGTLGVSDTKGAGHFVGVEFDTYSNSEYNDPPTDHVGIDVNSVDSVKTVPWNSVSGAVVKVTVIYDSSTKTLSVAVTNDNGDITTIAQVVDLKAKLPERVKFGFSASGSLGGRQIHLIRSWSFTSTLITTTRRSIDNNEKKIMNMASA",glycan array binding signal (z-score),[1],-0.195
same,glycan array binding signal (z-score),Neu5Ac(a2-3)Gal,-0.171
same,glycan array binding signal (z-score),[2],-0.195
same,glycan array binding signal (z-score),[3],-0.228
same,glycan array binding signal (z-score),[4],-0.112
same,glycan array binding signal (z-score),[5],-0.201
same,glycan array binding signal (z-score),[6],-0.153
same,glycan array binding signal (z-score),[7],-0.171
same,glycan array binding signal (z-score),[8],-0.167
same,glycan array binding signal (z-score),[9],-0.195
same,glycan array binding signal (z-score),[10],-0.179
same,glycan array binding signal (z-score),[11],-0.144
same,glycan array binding signal (z-score),[12],-0.353
same,glycan array binding signal (z-score),[13],-0.061
same,glycan array binding signal (z-score),[14],-0.182
same,glycan array binding signal (z-score),[15],-0.192
same,glycan array binding signal (z-score),[16],-0.167
same,glycan array binding signal (z-score),[17],-0.158
same,glycan array binding signal (z-score),[18],-0.195
same,glycan array binding signal (z-score),[19],-0.138
same,glycan array binding signal (z-score),[20],-0.269
same,glycan array binding signal (z-score),[21],-0.123
same,glycan array binding signal (z-score),[22],-0.195
same,glycan array binding signal (z-score),[23],-0.192
same,glycan array binding signal (z-score),[24],-0.129
same,glycan array binding signal (z-score),[25],-0.195
same,glycan array binding signal (z-score),[26],-0.205
same,glycan array binding signal (z-score),[27],-0.219
same,glycan array binding signal (z-score),[28],-0.21
same,glycan array binding signal (z-score),[29],-0.176
same,glycan array binding signal (z-score),[30],-0.195
same,glycan array binding signal (z-score),[31],-0.195
same,glycan array binding signal (z-score),[32],-0.23
same,glycan array binding signal (z-score),[33],-0.174
same,glycan array binding signal (z-score),Neu5Ac(a2-3)Gal(b1-4)Glc,-0.178
same,glycan array binding signal (z-score),[34],-0.183
same,glycan array binding signal (z-score),[35],-0.181
same,glycan array binding signal (z-score),[36],-0.14
same,glycan array binding signal (z-score),[37],-0.379
same,glycan array binding signal (z-score),[38],-0.148
same,glycan array binding signal (z-score),[39],-0.306
same,glycan array binding signal (z-score),[40],-0.17
same,glycan array binding signal (z-score),[41],-0.366
same,glycan array binding signal (z-score),[42],-0.266
same,glycan array binding signal (z-score),[43],-0.349
